# From PubChem BioAssay AID624418 (National Center for Advancing Translational Sciences (NCATS), 2012)
# In all, about 410,000 compounds went through this assay and about 530 (0.13%) were called active. Inconclusive results, whose numbers are uncertain, are shown with a selection of clear calls. The call rests on the fitted dose curve; in most records, active means well fitted inhibition curve with a large enough effect; inconclusive means small, poorly fitted or top-dose-only effect, or another doubt; inactive means no such curve, though single readings can be large or run the other way. A potency beside an inconclusive call is a rough fit, not a confirmed value.
# Assay: qHTS of GLP-1 Receptor Inverse Agonists: Cytotox Screen
# Conditions: HEK293 cAMP-luciferase reporter cells, luminescence, 24 h; series mostly up to 38.3 µM
# Summary of the method: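 Quantitative HTS format, 1536 wells, 200 cells/uL seeded. Compounds: 23 nL, 24 h, 37 °C. Detection: luciferase reagent, luminescence at 12 min RT; decreased signal taken as cytotoxic.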
# Potency means the concentration at half of the fitted maximal effect.
row,Compound,Potency
1,c1ccc(-c2nnc(N3CCN(c4ccccn4)CC3)c3ccccc23)cc1,"inconclusive: 28.2 µM [inhibitor, single point]"
2,CC1=NN(c2ccccc2)C(=O)/C1=C/C=C/C=C/N(C)C,"inconclusive: 2.82 µM [inhibitor, single point]"
3,CCc1nc2ccc(C(=O)Nc3cc(-c4ccccc4)ccc3OC)cn2c1N(C)CCC(C)C,"inconclusive: 28.2 µM [inhibitor, single point]"
4,COc1ccc(OC)c(C(C)NC(=O)Cn2c(=O)cc(C)c3c(C)nn(-c4ccc(C)cc4)c32)c1 (stereo unspecified),inactive
5,Nc1c(-c2nc(-c3cccs3)no2)nnn1-c1cccc(Cl)c1,inactive
6,CCCCCCCCCS(=O)(=O)N/N=C/c1cccc([N+](=O)[O-])c1,"inconclusive: 28.2 µM [inhibitor, single point]"
7,COC(=O)[C@@]12C[C@@H](CC(=O)NCc3cccs3)C(=O)N(Cc3ccc4c(c3)OCO4)C1=CCC(C)(C)C2,"inconclusive: 31.6 µM [inhibitor, single point]"
8,CCOc1ccccc1N=Nc1c(C)[nH]n(C(N)=S)c1=O,"inconclusive: 0.708 µM [inhibitor, full curve]"
9,Cc1cc(C)cc(OCc2nnc(SCC(=O)NC3CC3)n2C)c1,"inconclusive: 12.6 µM [inhibitor, partial curve, poor fit]"
10,CCc1ccc2c(c1)Sc1ccccc1CC2N1CCN(C)CC1 (stereo unspecified),"inconclusive: 6.31 µM [inhibitor, partial curve]"
11,CC(c1nccs1)N(C)C(=O)c1ccc(OC2CCN(CCc3ccccc3)CC2)cc1 (stereo unspecified),"inconclusive: 28.2 µM [inhibitor, single point]"
12,CCOC(=O)C1=C(Cc2ccc(OC)cc2)C(=O)c2ccccc2C1=O,"inconclusive: 11.2 µM [inhibitor, partial curve, poor fit]"
13,CCOc1ccc(S(=O)(=O)N(CC(=O)NCCSc2ccccc2)c2ccccc2)cc1,inactive
14,Cc1cc(N2CCCCC2)nc2ccc(NC(=O)/C=C/c3ccccc3Cl)cc12,"inconclusive: 22.4 µM [inhibitor, single point]"
15,Cc1cccc(C2Nc3ccccc3C(=O)N2c2ccccc2)n1 (stereo unspecified),inactive
16,Cc1ccc(O)c(N=Nc2ccccc2)n1,inactive
17,Cc1ccc(CNC(=O)C2CC(c3ccc(C(F)(F)F)cc3)=NO2)o1 (stereo unspecified),"inconclusive: 28.2 µM [inhibitor, single point]"
18,CSc1cccc(NC(=O)C2CCN(C(=O)c3ccccc3C)CC2)c1,"inconclusive: 25.1 µM [inhibitor, single point]"
19,CC1C/C(=C/c2ccncc2)C(=O)/C(=C/c2ccncc2)C1 (stereo unspecified),"inconclusive: 6.31 µM [inhibitor, partial curve, poor fit]"
20,Cc1cc(N2CCCC2)ccc1/C=C1/C(=O)N(C)C(=S)N1C,"inconclusive: 8.91 µM [inhibitor, partial curve, poor fit]"
21,COc1ccc(C(CNC(=O)c2cccc(S(=O)(=O)Nc3ccc(C)cc3)c2)N2CCCCC2)cc1 (stereo unspecified),"inconclusive: 22.4 µM [inhibitor, single point]"
22,CC(=O)Oc1ccc(OC(C)=O)c(SCCCCCCl)c1,"inconclusive: 20 µM [inhibitor, single point]"

row,Compound,Potency
1,Cc1ccc(C)c(S(=O)(=O)N2CCN(C(=O)CCCc3c[nH]c4ccccc34)CC2)c1,inactive
2,O=C(NC(NC(=S)Nc1c(Cl)cccc1Cl)C(Cl)(Cl)Cl)OCc1ccccc1 (stereo unspecified),"inconclusive: 22.4 µM [inhibitor, single point]"
3,c1ccc2c(N3CCCCC3)nc(N3CCCC3)nc2c1,"inconclusive: 11.2 µM [inhibitor, single point]"
4,Oc1ccc(/C=N/N2CCN(c3ccccn3)CC2)cc1,inactive
5,COc1cccc(S(=O)(=O)Nc2ccc3c(c2)[C@@H]2C[C@@H](CC(=O)NCc4ccc(Cl)cc4)O[C@@H](CO)[C@@H]2O3)c1,"inconclusive: 28.2 µM [inhibitor, single point]"
6,CCOc1c(Br)cc(CNC2CCCCCCC2)cc1OC,inactive
7,COc1ccc(NS(=O)(=O)c2ccc3c(c2)NC(=O)CCS3)cc1Cl,"inconclusive: 31.6 µM [inhibitor, single point]"
8,CCN(c1ccccc1)S(=O)(=O)c1ccc(N)c(OC)c1,"inconclusive: 5.62 µM [inhibitor, partial curve]"
9,COc1ccc2[nH]c3c(N4CC(C)OC(C)C4)ncnc3c2c1 (stereo unspecified),inactive
10,COc1cccc(CNC(=O)c2ccc3c(c2)nc2n3CCC(C)C2)c1OC (stereo unspecified),inactive
11,S=c1[nH]nc(-c2ccc(Cl)cc2)n1CC1CCCO1 (stereo unspecified),"inconclusive: 11.2 µM [inhibitor, partial curve, poor fit]"
12,CCOC(=O)C1CCCN(C(=O)c2[nH]c3ccccc3c2Sc2ccc(Cl)cc2)C1 (stereo unspecified),"inconclusive: 11.2 µM [inhibitor, partial curve, poor fit]"
13,CC(C)C1N=C(c2ccc3c(c2)OCO3)CC(c2ccccc2O)N1 (stereo unspecified),"inconclusive: 25.1 µM [inhibitor, single point]"
14,O=C(N[C@@H](Cc1c[nH]c2ccccc12)C(=O)O)C1CCN(S(=O)(=O)c2ccc(Cl)cc2)CC1,"inconclusive: 10 µM [inhibitor, partial curve, poor fit]"
15,O=C1Nc2ccc(Br)cc2C1=C1CCCCC1,"inconclusive: 28.2 µM [inhibitor, single point]"
16,CCOc1ccccc1C(=O)N/N=C/c1cccc2cccnc12,"inconclusive: 28.2 µM [inhibitor, single point]"
17,COc1ccccc1OCCNC(=O)c1cc(C2CC2)nc2c1cnn2C(C)C,inactive
18,Cc1ccc(N=C2S/C(=C\c3cn(CC(=O)O)c4ccccc34)C(=O)N2C)cc1,"inconclusive: 11.2 µM [inhibitor, single point]"
19,COc1ccccc1NC(=O)c1ccc(S(=O)(=O)N(C)c2ccccc2)cc1,inactive
20,Cc1ccc(NC(=O)CSc2nc(C)c(C)c(C)n2)c([N+](=O)[O-])c1,inactive
21,CCN1C[C@@H]2[C@@H]3C(=O)N(Cc4ccccc4)C(=O)[C@@H]3[C@](C)(C1=O)N2C(=O)c1ccc(Cl)cc1,"inconclusive: 1.58 µM [inhibitor, partial curve, poor fit]"
22,COc1cccc(C2=NOC(C(=O)NCc3cccs3)C2)c1 (stereo unspecified),"inconclusive: 3.98 µM [inhibitor, full curve]"

row,Compound,Potency
1,Cc1ccc(Nc2nc3nonc3[nH]c2=O)cc1Cl,"inconclusive: 2.82 µM [inhibitor, full curve, poor fit]"
2,O=[N+]([O-])c1cc(CN2CCN(c3ccccc3)CC2)c(O)c2ncccc12,"inconclusive: 2.51 µM [inhibitor, full curve]"
3,Clc1cccc(OCCN2CCN(CCOc3cccc(Cl)c3)CC2)c1,"inconclusive: 14.1 µM [inhibitor, partial curve, poor fit]"
4,CC(C)Oc1ccc(C(=O)NC(=S)N2CCOCC2)cc1,"inconclusive: 11.2 µM [inhibitor, single point]"
5,OCCC1CN(Cc2cc3c(cc2Cl)OCO3)CCN1C1CCCCC1 (stereo unspecified),"inconclusive: 28.2 µM [inhibitor, single point]"
6,COc1ccc(N(CC(=O)Nc2nc3ccc(C)cc3s2)S(=O)(=O)c2c(C)nn(C)c2C)cc1,"inconclusive: 7.94 µM [inhibitor, partial curve, poor fit]"
7,N#Cc1ccccc1OCCCN1CCC(C(O)(c2ccccc2)c2ccccc2)CC1,"inconclusive: 28.2 µM [inhibitor, single point]"
8,Cc1cc(O)ccc1Nc1nc(-c2cccnc2)cs1,"inconclusive: 5.62 µM [inhibitor, single point]"
9,C/C(=N\Nc1nc2ccccc2[nH]1)c1ccc2c(c1)OCO2,"inconclusive: 11.2 µM [inhibitor, single point]"
10,CC(C)CN(CCNC(=O)c1cc(-c2ccc(Cl)s2)nc2ccccc12)CC(C)C,inactive
11,CC(C)(C)C(=O)Cn1c(=O)n(-c2ccc(Cl)c(Cl)c2)c(=O)c2c3c(sc21)CCCC3,inactive
12,COc1cnc(-c2ccccn2)nc1Oc1cccc(Cl)c1,"inconclusive: 11.2 µM [inhibitor, partial curve, poor fit]"
13,CCOC(=O)c1cnc2ccc(C)cc2c1Nc1ccc(N2CCOCC2)cc1,"inconclusive: 10 µM [inhibitor, partial curve]"
14,COCc1cc(C)nc2sc(C(=O)Nc3cc(C)ccc3F)c(N)c12,inactive
15,O=c1c(-c2c(O)cc(O)c3c(=O)cc(-c4ccc(O)cc4)oc23)c(-c2ccc(O)cc2)oc2cc(O)cc(O)c12,inactive
16,CC1CN(c2ccc([N+](=O)[O-])c(NCCOc3ccccc3)c2)CCN1 (stereo unspecified),"inconclusive: 28.2 µM [inhibitor, single point]"
17,S=C(Nc1cc(Cl)cc(Cl)c1)NC1CCN(Cc2ccccc2)CC1,"inconclusive: 28.2 µM [inhibitor, single point]"
18,COc1ccc(NC(=O)NC(C)c2c(-n3cccc3)sc3c2CCN(C)C3)c(OC)c1 (stereo unspecified),inactive
19,O=C1/C(=C/c2ccco2)SC(=S)N1C1CCS(=O)(=O)C1 (stereo unspecified),"inconclusive: 28.2 µM [inhibitor, single point]"
20,CCOC(=O)[C@H]1[C@H]2COc3ccc(Cl)cc3[C@@H]2N2C(=O)c3cc(OC)ccc3NC(=O)[C@@]12C,"inconclusive: 11.2 µM [inhibitor, partial curve, poor fit]"
21,COc1cc2c(cc1OC)C(=NO)CCCC2,inactive
22,Cn1c(=O)c(C(=O)NNC(=O)c2cccc(Cl)c2)c(O)c2ccccc21,inactive
